Results as given in the supplement of paper PMC4604168 (melanoma cell lines).
The other results are listed elsewhere or left out. Most values come without repeats; read them as rough.

Tests used:
Experiment in all cases: cell count relative to DMSO control; melanoma cells; higher = more viable cells
Details in all cases: library dose: standard library concentration; 72 h
SkMel28 = tested on: SkMel28
SkMel2 = tested on: SkMel2
SkMel30 = tested on: SkMel30
SkMel5 = tested on: SkMel5
UACC257 = tested on: UACC257
UACC62 = tested on: UACC62
WM115 = tested on: WM115
WM1716 = tested on: WM1716
WM1745 = tested on: WM1745
WM3526 = tested on: WM3526
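Note: cells treated in 1,536-well plates, then fixed and DAPI-stained, with nuclei counted from automated high-throughput microscope images.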

Compound | cell count (SkMel28) [%] | cell count (SkMel2) [%] | cell count (SkMel30) [%] | cell count (SkMel5) [%] | cell count (UACC257) [%] | cell count (UACC62) [%] | cell count (WM115) [%] | cell count (WM1716) [%] | cell count (WM1745) [%] | cell count (WM3526) [%]
Cn1cnc2c(F)c(Nc3ccc(Br)cc3Cl)c(C(=O)NOCCO)cc21 [selumetinib] + CO[C@H]1C[C@@H]2CC[C@@H](C)[C@@](O)(O2)C(=O)C(=O)N2CCCC[C@H]2C(=O)O[C@H]([C@H](C)C[C@@H]2CC[C@@H](OCCO)[C@H](OC)C2)CC(=O)[C@H](C)/C=C(\C)[C@@H](O)[C@@H](OC)C(=O)[C@H](C)C[C@H](C)/C=C/C=C/C=C/1C [everolimus] (first compound 0.075 µM, partner dose 0.1 µM) | 37.5 | 39.6 | 41.3 | 54.8 | 83.7 | 52.4 | 50.8 | 56.7 | 75.8 | 43.2
COc1cc([C@@H]2c3cc4c(cc3[C@@H](O[C@@H]3O[C@@H]5CO[C@@H](C)O[C@H]5[C@H](O)[C@H]3O)[C@H]3COC(=O)[C@H]23)OCO4)cc(OC)c1O [etoposide] + CS(=O)(=O)CCNCc1ccc(-c2ccc3ncnc(Nc4ccc(OCc5cccc(F)c5)c(Cl)c4)c3c2)o1 [lapatinib] (first compound 0.1 µM, partner dose 4 µM) | 72.2 | 48.1 | 71.5 | 56.1 | 81.8 | 43.8 | 66.9 | 62.9 | 66.9 | 71.8
C[C@]1(O)C[C@@H](c2nc(-c3ccc4ccc(-c5ccccc5)nc4c3)c3c(N)nccn32)C1 + CCN(CC)CCNC(=O)c1c(C)[nH]c(/C=C2\C(=O)Nc3ccc(F)cc32)c1C [sunitinib] (first compound 2 µM, partner dose 2 µM) | 43.6 | 56.2 | 47.2 | 52.5 | 83.9 | 51.5 | 57.7 | 91.2 | 37.8 | 55.1
CCN(CC)CCNC(=O)c1c(C)[nH]c(/C=C2\C(=O)Nc3ccc(F)cc32)c1C [sunitinib] + OCc1c[nH]c2ccccc12 [Indole-3-carbinol] (first compound 2 µM, partner dose 4 µM) | 71.9 | 65.1 | 43.7 | 48.5 | 81.6 | 49.7 | 57.7 | 91.8 | 34.3 | 47.3
Cn1cnc2c(F)c(Nc3ccc(Br)cc3Cl)c(C(=O)NOCCO)cc21 [selumetinib] + Cn1cncc1[C@@](N)(c1ccc(Cl)cc1)c1ccc2c(c1)c(-c1cccc(Cl)c1)cc(=O)n2C [tipifarnib] (first compound 0.075 µM, partner dose 0.05 µM) | 43 | 36.9 | 53.1 | 66.7 | 91.4 | 54.5 | 63.1 | 69.1 | 74.4 | 49
C[C@]1(O)C[C@@H](c2nc(-c3ccc4ccc(-c5ccccc5)nc4c3)c3c(N)nccn32)C1 + CCCCCCCCc1ccc(CCC(N)(CO)CO)cc1 [fingolimod] (first compound 2 µM, partner dose 10 µM) | 2.66 | 0.0984 | 12.8 | 68.8 | 69.2 | 14.2 | 15.9 | 63.4 | 3.08 | 28
CCN(CC)CCNC(=O)c1c(C)[nH]c(/C=C2\C(=O)Nc3ccc(F)cc32)c1C [sunitinib] + O=C(O)c1ccc(-c2c[nH]c3ncc(-c4ccccc4)cc23)cc1C1CCCC1 [GSK650394] (first compound 2 µM, partner dose 0.8 µM) | 56.3 | 58.8 | 63.7 | 51.8 | 87.8 | 61.8 | 40 | 78.5 | 44.8 | 60.4
CCN(CC)CCNC(=O)c1c(C)[nH]c(/C=C2\C(=O)Nc3ccc(F)cc32)c1C [sunitinib] + CC(=O)c1c(C)c2cnc(Nc3ccc(N4CCNCC4)cn3)nc2n(C2CCCC2)c1=O [palbociclib] (first compound 2 µM, partner dose 0.2 µM) | 30.2 | 50.7 | 54.3 | 27.4 | 77 | 31.4 | 43.3 | 54 | 40.1 | 36.8
C[C@]1(O)C[C@@H](c2nc(-c3ccc4ccc(-c5ccccc5)nc4c3)c3c(N)nccn32)C1 + CN(c1ncccc1CNc1nc(Nc2ccc3c(c2)CC(=O)N3)ncc1C(F)(F)F)S(C)(=O)=O [PF562271] (first compound 2 µM, partner dose 0.4 µM) | 83.6 | 58.1 | 78.9 | 65.6 | 74.5 | 3.24 | 62 | 72.8 | 42.1 | 115
Cn1cnc2c(F)c(Nc3ccc(Br)cc3Cl)c(C(=O)NOCCO)cc21 [selumetinib] + CN1CCN(c2ccc3nc(-c4c(N)c5c(F)cccc5[nH]c4=O)[nH]c3c2)CC1 [Dovitinib] (first compound 0.075 µM, partner dose 0.5 µM) | 26.5 | 21.4 | 37.6 | 47 | 65.7 | 47.6 | 40.1 | 66.1 | 49.2 | 37.8
CCN(CC)CCNC(=O)c1c(C)[nH]c(/C=C2\C(=O)Nc3ccc(F)cc32)c1C [sunitinib] + CN(C)S(=O)(=O)c1ccc2c(c1)/C(=C/c1cc3c([nH]1)CCCC3)C(=O)N2 [SU6656] (first compound 2 µM, partner dose 2 µM) | 33.7 | 60.9 | 65.2 | 47.4 | 61.8 | 57.7 | 34.2 | 80.1 | 46.7 | 56.4
C[C@]1(O)C[C@@H](c2nc(-c3ccc4ccc(-c5ccccc5)nc4c3)c3c(N)nccn32)C1 + Cn1cncc1[C@@](N)(c1ccc(Cl)cc1)c1ccc2c(c1)c(-c1cccc(Cl)c1)cc(=O)n2C [tipifarnib] (first compound 2 µM, partner dose 0.05 µM) | 66 | 61.4 | 83.2 | 53.8 | 70.7 | 65.9 | 77.8 | 62.2 | 55.6 | 76.4
C[C@]1(O)C[C@@H](c2nc(-c3ccc4ccc(-c5ccccc5)nc4c3)c3c(N)nccn32)C1 + CO[C@H]1C[C@@H]2CC[C@@H](C)[C@@](O)(O2)C(=O)C(=O)N2CCCC[C@H]2C(=O)O[C@H]([C@H](C)C[C@@H]2CC[C@@H](OCCO)[C@H](OC)C2)CC(=O)[C@H](C)/C=C(\C)[C@@H](O)[C@@H](OC)C(=O)[C@H](C)C[C@H](C)/C=C/C=C/C=C/1C [everolimus] (first compound 2 µM, partner dose 0.1 µM) | 37.6 | 36 | 42.7 | 36.4 | 72.7 | 55.3 | 56.9 | 66.9 | 57.8 | 42.3
C[C@]1(O)C[C@@H](c2nc(-c3ccc4ccc(-c5ccccc5)nc4c3)c3c(N)nccn32)C1 + NCC(=O)Nc1ccc(-n2nc(C(F)(F)F)cc2-c2ccc3c(ccc4ccccc43)c2)cc1 [OSU03012] (first compound 2 µM, partner dose 5 µM) | 28.6 | 42.7 | 41.4 | 60.6 | 76.2 | 65.6 | 76.8 | 86 | 24 | 38.9
C[C@]1(O)C[C@@H](c2nc(-c3ccc4ccc(-c5ccccc5)nc4c3)c3c(N)nccn32)C1 + COc1cc2c(Oc3ccc4[nH]c(C)cc4c3F)ncnc2cc1OCCCN1CCCC1 [cediranib] (first compound 2 µM, partner dose 2 µM) | 148 | 71.7 | 95.9 | 71 | 94.6 | 88.3 | 125 | 124 | 62.5 | 66.5
COc1cc([C@@H]2c3cc4c(cc3[C@@H](O[C@@H]3O[C@@H]5CO[C@@H](C)O[C@H]5[C@H](O)[C@H]3O)[C@H]3COC(=O)[C@H]23)OCO4)cc(OC)c1O [etoposide] + Cc1ccc(Nc2nccc(N(C)c3ccc4c(C)n(C)nc4c3)n2)cc1S(N)(=O)=O [Pazopanib] (first compound 0.1 µM, partner dose 2 µM) | 78.2 | 74.5 | 90.8 | 63.5 | 92.1 | 53.5 | 79.7 | 62.4 | 81.4 | 80.6
CCN(CC)CCNC(=O)c1c(C)[nH]c(/C=C2\C(=O)Nc3ccc(F)cc32)c1C [sunitinib] + NC1(c2ccc(-c3nc4ccn5c(=O)[nH]nc5c4cc3-c3ccccc3)cc2)CCC1 [MK2206] (first compound 2 µM, partner dose 2 µM) | 27.3 | 44.6 | 52 | 39.7 | 95 | 26.7 | 38.6 | 73.2 | 40.8 | 45
Cn1cnc2c(F)c(Nc3ccc(Br)cc3Cl)c(C(=O)NOCCO)cc21 [selumetinib] + COc1cc(Nc2ncc(F)c(Nc3ccc4c(n3)NC(=O)C(C)(C)O4)n2)cc(OC)c1OC [Tamatinib] (first compound 0.075 µM, partner dose 2 µM) | 42.4 | 42 | 64.4 | 55.3 | 101 | 56 | 44.1 | 61.6 | 26.4 | 49.2
COc1cc([C@@H]2c3cc4c(cc3[C@@H](O[C@@H]3O[C@@H]5CO[C@@H](C)O[C@H]5[C@H](O)[C@H]3O)[C@H]3COC(=O)[C@H]23)OCO4)cc(OC)c1O [etoposide] + C[C@]1(c2nc3c(C(N)=O)cccc3[nH]2)CCCN1 [Veliparib] (first compound 0.1 µM, partner dose 7 µM) | 73 | 60.6 | 102 | 77.9 | 79.3 | 60.1 | 71.4 | 65.3 | 80.4 | 77
Cn1cnc2c(F)c(Nc3ccc(Br)cc3Cl)c(C(=O)NOCCO)cc21 [selumetinib] + O=C(O)c1ccc2c(c1)nc(Nc1cccc(Cl)c1)c1ccncc12 [CX4945] (first compound 0.075 µM, partner dose 2 µM) | 34.7 | 25.1 | 38.7 | 55.6 | 72.7 | 49.1 | 54.9 | 103 | 65.6 | 36.9
C[C@]1(O)C[C@@H](c2nc(-c3ccc4ccc(-c5ccccc5)nc4c3)c3c(N)nccn32)C1 + CCCS(=O)(=O)Nc1ccc(F)c(C(=O)c2c[nH]c3ncc(Cl)cc23)c1F [PLX4720] (first compound 2 µM, partner dose 0.4 µM) | 30.3 | 82 | 95.5 | 71.8 | 108 | 55.9 | 80.5 | 90.4 | 51.7 | 42.3
